Data from the supplement of paper PMC7125110.
± gives the standard error. Variants at the background level are over-represented here.

B1: glmS ribozyme (parent)
chain: AUAAAAGCGCCAGAACUACAGAAAUGUAGUUGACGAGGAGGAGGUUUAUCGAAUUUUCGGCGGAUGCCUCCAAA

Variants of: B1
Test: self-cleavage kobs at 2500 uM GlcN6P; higher = faster cleavage; RNA array
Details: with glucosamine-6-phosphate
In short: (§1)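 Weighted Michaelis–Menten fits across concentrations supplied kcat and KM, based on kobs from one- or two-exponential decay fits to normalised per-tile medians. The data came from barcoded ribozyme variants transcribed in situ by E. coli RNA polymerase on sequenced MiSeq chips and tracked at 37 °C by a hybridised Cy3 probe. Glucosamine-6-phosphate (40 μM to 10 mM) in HEPES/KCl/Mg(OAc)2 buffer was flowed in.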

Variant	self-cleavage kobs at 2500 uM GlcN6P
A39G G40A G63C	< 1e-05 s⁻¹
A39G G40U U54A	0.000126 ± 6.2e-05 s⁻¹
A39G G41C G51U C61U	< 1e-05 s⁻¹
A39G G41U A42G	0.000339 ± 9.9e-05 s⁻¹
A39G G41U C68A	< 1e-05 s⁻¹
A39G U47G C68G	5.94e-05 ± 2.4e-05 s⁻¹
A39G U49A U55C G66U	< 1e-05 s⁻¹
A39U C58A	8.13e-05 ± 1.4e-05 s⁻¹
A39U G40C C68G	< 1e-05 s⁻¹
A39U G60A U65G	< 1e-05 s⁻¹
A39U U69A C70G	< 1e-05 s⁻¹
G40A A52G C61A	< 1e-05 s⁻¹
G40A G51C U55G G62U	< 1e-05 s⁻¹
G40A U49A	< 1e-05 s⁻¹
G40A U54C G60U	< 1e-05 s⁻¹
G40C G41A G43C	< 1e-05 s⁻¹
G40U C61G C67A	< 1e-05 s⁻¹
G40U G41A C67A C70U	0.000143 ± 3.7e-05 s⁻¹
G40U G41U G60A	< 1e-05 s⁻¹
G40U G44A U55C C67U	< 1e-05 s⁻¹
G40U G66A C70U	0.0016 ± 0.00053 s⁻¹
G40U U49A G62C C68U	< 1e-05 s⁻¹
G41A A42C	6.51e-05 ± 1.8e-05 s⁻¹
G41A A42U U47C U55A C68A	< 1e-05 s⁻¹

Variant	self-cleavage kobs at 2500 uM GlcN6P
G41A G63U C70U	< 1e-05 s⁻¹
G41A U49G G62C	< 1e-05 s⁻¹
G41C C50A U69G C70U	< 1e-05 s⁻¹
G41C U46G A64U U65C	< 1e-05 s⁻¹
G41C U47G	3.37e-05 ± 1.6e-05 s⁻¹
G41C U55C C67U	< 1e-05 s⁻¹
G41U A52C U69G	< 1e-05 s⁻¹
G41U G51U A52C G66A C70A	< 1e-05 s⁻¹
G41U G62A C70U	< 1e-05 s⁻¹
G41U U45A A52C G63U	< 1e-05 s⁻¹
G41U U47G U49A G66C C71U	< 1e-05 s⁻¹
A42C G43A A52C C58G	< 1e-05 s⁻¹
A42C G51A A64U C68G	< 1e-05 s⁻¹
A42C U56C C67G	< 1e-05 s⁻¹
A42G A52C A53G U54G	< 1e-05 s⁻¹
A42G A52G C68A	< 1e-05 s⁻¹
A42G A53U U55A G60A G63C C71A	< 1e-05 s⁻¹
A42G G51C G60C	< 1e-05 s⁻¹
A42G G51U C67U	< 1e-05 s⁻¹
A42G U45C U57G	< 1e-05 s⁻¹
A42G U46A C58G G60U	< 1e-05 s⁻¹
A42U A53C	7.29e-05 ± 2e-05 s⁻¹
A42U C50A G51A	< 1e-05 s⁻¹
A42U C70A	9.98e-05 ± 1.2e-05 s⁻¹

Variant	self-cleavage kobs at 2500 uM GlcN6P
A42U U55A G62A	< 1e-05 s⁻¹
G43A A48G U54G C67U	< 1e-05 s⁻¹
G43A A48U U54A C68G	< 1e-05 s⁻¹
G43A A52C G66C U69G	< 1e-05 s⁻¹
G43A G44C U54G	< 1e-05 s⁻¹
G43A U45A C50U G63C	< 1e-05 s⁻¹
G43C A64U C68A C71G	< 1e-05 s⁻¹
G43C G51C G59U	< 1e-05 s⁻¹
G43U A53G C61A	< 1e-05 s⁻¹
G43U C50U A53C C71U	< 1e-05 s⁻¹
G43U G44U U49A U55A	< 1e-05 s⁻¹
G43U U45A U47G	< 1e-05 s⁻¹
G44A A48G U55A	< 1e-05 s⁻¹
G44C A53U U54G	7.38e-05 ± 2e-05 s⁻¹
G44C U49A G60A G66U	< 1e-05 s⁻¹
G44C U54C	0.000133 ± 2.4e-05 s⁻¹
G44U A52G C67U U69G	< 1e-05 s⁻¹
G44U C58A G63A	< 1e-05 s⁻¹
G44U C58A G63U C71A	< 1e-05 s⁻¹
G44U G51U C68U	< 1e-05 s⁻¹
G44U U56C U57A	< 1e-05 s⁻¹
G44U U57A A64C	< 1e-05 s⁻¹
U45C A52C U54C	< 1e-05 s⁻¹
U45C G51C	< 1e-05 s⁻¹

Variant	self-cleavage kobs at 2500 uM GlcN6P
U45C G66U C70G	7.12e-05 ± 3.1e-05 s⁻¹
U45C U57C C68G	< 1e-05 s⁻¹
U45G A48U U55C	8.04e-05 ± 2.8e-05 s⁻¹
U45G C50U G62A	< 1e-05 s⁻¹
U45G G51C	< 1e-05 s⁻¹
U45G G60A C67G C68U	< 1e-05 s⁻¹
U46A C50A U56A	< 1e-05 s⁻¹
U46C A48C	8.54e-05 ± 2.8e-05 s⁻¹
U46C U57C G59A	< 1e-05 s⁻¹
U46G A52C C58A	< 1e-05 s⁻¹
U46G U49G C50U	< 1e-05 s⁻¹
U46G U54A C61G	< 1e-05 s⁻¹
U47A A53G C70A	0.000177 ± 4e-05 s⁻¹
U47A A53U U65A	0.00126 ± 0.00036 s⁻¹
U47A C50A G59U G66C	< 1e-05 s⁻¹
U47A U55C U69C	0.000127 ± 4.1e-05 s⁻¹
U47C U56A A64G	0.000616 ± 0.00019 s⁻¹
A48C C58G	< 1e-05 s⁻¹
A48C U57C G62A	< 1e-05 s⁻¹
A48G A52G A53G G59U	< 1e-05 s⁻¹
A48G G66U C71G	< 1e-05 s⁻¹
A48G U49G G63C U65C	< 1e-05 s⁻¹
A48U G51C C61U	< 1e-05 s⁻¹
A48U G60C C67A	< 1e-05 s⁻¹

Variant	self-cleavage kobs at 2500 uM GlcN6P
U49A C50U G63U	< 1e-05 s⁻¹
U49A G60A	< 1e-05 s⁻¹
U49C A53U C70U	< 1e-05 s⁻¹
U49C C50G A64C	< 1e-05 s⁻¹
C50A U56G C70A	8.66e-05 ± 2.8e-05 s⁻¹
C50A U69C	6.67e-05 ± 2e-05 s⁻¹
C50U G51A U54C G60U	< 1e-05 s⁻¹
C50U U54G U55C U57C	< 1e-05 s⁻¹
G51A G62C U65C	< 1e-05 s⁻¹
G51C A52C	< 1e-05 s⁻¹
G51C C61G	< 1e-05 s⁻¹
G51C C67U	< 1e-05 s⁻¹
G51C G62U C71U	< 1e-05 s⁻¹
G51C G66A	< 1e-05 s⁻¹
G51U A53U C58G G63C	< 1e-05 s⁻¹
G51U U57A	< 1e-05 s⁻¹
A52C A53U U57A	< 1e-05 s⁻¹
A52C C58U G59U	< 1e-05 s⁻¹
A52U C61G C67U	8.45e-05 ± 3e-05 s⁻¹
A52U G63U U65A C70U	< 1e-05 s⁻¹
A53C C61A G62U	< 1e-05 s⁻¹
A53U G60C C61A	< 1e-05 s⁻¹
U54A G63A C70U	< 1e-05 s⁻¹
U54G C61U	3.11e-05 ± 1.3e-05 s⁻¹

Variant	self-cleavage kobs at 2500 uM GlcN6P
U54G G62A	< 1e-05 s⁻¹
U54G G63U	< 1e-05 s⁻¹
U55G G62U G63U	< 1e-05 s⁻¹
U56C A64G	8.52e-05 ± 2.8e-05 s⁻¹
U56C A64U C70G	< 1e-05 s⁻¹
U56G G63C C68U	< 1e-05 s⁻¹
U57A A64U C67U U69G	8.87e-05 ± 2.4e-05 s⁻¹
C58A G60U A64C	< 1e-05 s⁻¹
C58A G60U G66U	< 1e-05 s⁻¹
C58A U65G C70U	6.2e-05 ± 2.7e-05 s⁻¹
G59U G60U U69C	< 1e-05 s⁻¹
G59U U65A	< 1e-05 s⁻¹
G60C G62A C71G	< 1e-05 s⁻¹
C61U U65A C67U C70A	5.06e-05 ± 2.1e-05 s⁻¹
G62A G66C	< 1e-05 s⁻¹
G62C G66A	< 1e-05 s⁻¹
G62U A64G C70U	< 1e-05 s⁻¹
G63A C71U	< 1e-05 s⁻¹
A64C C67G C68A	6.52e-05 ± 1.8e-05 s⁻¹
A64U C67U	5.62e-05 ± 8.7e-06 s⁻¹
A64U C68U U69A	< 1e-05 s⁻¹
A64U U65G G66U	< 1e-05 s⁻¹
C68U U69C	3.88e-05 ± 1.4e-05 s⁻¹

Variants of: B1
Test: self-cleavage kobs at 10000 uM GlcN6P; higher = faster cleavage; RNA array
Details: with glucosamine-6-phosphate
In short: as §1

Variant	self-cleavage kobs at 10000 uM GlcN6P
A39G G41U C68A	< 1e-05 s⁻¹
A39U C58A	0.000214 ± 2.7e-05 s⁻¹
A39U G60A U65G	< 1e-05 s⁻¹
G40A G51C U55G G62U	< 1e-05 s⁻¹
G41A A42C	3.53e-05 ± 1.3e-05 s⁻¹
G41C U47G	0.000117 ± 2.8e-05 s⁻¹
G41U G62A C70U	< 1e-05 s⁻¹
A42U A53C	0.000113 ± 1.6e-05 s⁻¹
A42U C70A	0.00012 ± 9.1e-06 s⁻¹
G44A A48G U55A	< 1e-05 s⁻¹
G44C U54C	0.000179 ± 3e-05 s⁻¹
U46C A48C	0.000136 ± 2.8e-05 s⁻¹
A48C C58G	< 1e-05 s⁻¹
G51A G62C U65C	< 1e-05 s⁻¹
G51C C67U	< 1e-05 s⁻¹
G51C G66A	< 1e-05 s⁻¹
G51U U57A	< 1e-05 s⁻¹
U54G C61U	2.39e-05 ± 1e-05 s⁻¹

Variant	self-cleavage kobs at 10000 uM GlcN6P
U56C A64G	0.000131 ± 2e-05 s⁻¹
U56C A64U C70G	< 1e-05 s⁻¹
C58A G60U A64C	< 1e-05 s⁻¹
G62A G66C	< 1e-05 s⁻¹
G62U A64G C70U	< 1e-05 s⁻¹
G63A C71U	< 1e-05 s⁻¹
A64U C67U	5.31e-05 ± 6.3e-06 s⁻¹
C68U U69C	6.79e-05 ± 1.1e-05 s⁻¹
A6C A42U G51C	< 1e-05 s⁻¹
A6C A48C A64G	< 1e-05 s⁻¹
A6C C8A A36C	< 1e-05 s⁻¹
A6C C16G G29C G37C G41U A52C	< 1e-05 s⁻¹
A6C C50U G62U	< 1e-05 s⁻¹
A6C G9U C11A G62A C71U	< 1e-05 s⁻¹
A6C G40U A42U	< 1e-05 s⁻¹
A6C G43U C61G	< 1e-05 s⁻¹
A6C G43U G59U	< 1e-05 s⁻¹
